Experimental findings from patent US5990094A, “Inhibitors of sorotonin N-acetyltransferase” (The Rockefeller University, priority 1998, dated 1999) are described below.

Substrate in data set [1]: CC(=O)SCCNC(=O)CCNC(=O)[C@H](O)C(C)(C)COP(=O)(O)OP(=O)(O)OC[C@H]1O[C@@H](n2cnc3c(N)ncnc32)[C@H](O)[C@@H]1OP(=O)(O)O
In words: purified protein, by the assay type. Conditions: other: two-substrate kinetics, sequential (ternary complex) fit; pH 6.8; 30.0 °C.

Substrate in data set [2]: NCCc1c[nH]c2ccccc12
Nature of the data set: Two-substrate steady state kinetics with GST-AANAT. The format is biochemical, sheep. Conditions: other: two-substrate kinetics, sequential (ternary complex) fit; pH 6.8; 30.0 °C.

The term Km denotes the concentration of substrate that gives half-maximal velocity.

B1: GST-AANAT (Ovis aries) (protein)
chain: [here about 200 residues without letters]SDLVPRGSPEFPGRLEMSTPSVHCLKPSPLHLPSGIPGSPGRQRRHTLPANEFRCLTPEDAAGVFEIEREAFISVSGNCPLNLDEVQHFLTLCPELSLGWFVEGRLVAFIIGSLWDEERLTQESLALHRPRGHSAHLHALAVHRSFRQQGKGSVLLWRYLHHVGAQPAVRRAVLMCEDALVPFYQRFGFHPAGPCAIVVGSLTFTEMHCSLRGHAALRRNSDR
notes: The entire open reading frame of the DNA encoding sheep AANAT in the plasmid vector pET15b; made in house; host or cells: Escherichia coli BL21(DE3)pLysS
For B1, the Km in data set [1] amounted to 212 µM; in data set [2], 147 µM.
